According to PubChem BioAssay AID1963576 (National Center for Advancing Translational Sciences (NCATS), 2024):
In all, about 46,000 compounds went through this assay and about 60 (0.1%) were called active. Roughly 3% stayed inconclusive and do not appear here. Calls follow the shape of the dose curve; as a rule, active = well fitted inhibition curve with a large enough effect; inconclusive = small, poorly fitted or top-dose-only effect; inactive = no such curve, though single readings can be large or run the other way. Some of the results follow.

assay: Primary qHTS assay for Inhibitors of ovarian cancer metastasis using an organotypic tumor microenvironment (TME) model.; also: nearly all actives have a fitted effect of over 65% in size;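 as to activity change, negative = inhibition: plate controls were DMSO wells for no effect and tomatine positive control wells for full effect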; settings: SKOV3ip1-GFP adhesion/invasion on 3D omental model, fluorescence; series mostly up to 45.8 µM; activity change, negative = inhibition: at the top concentration
Procedure, shortened: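 Adhesion/invasion was scored as fixed GFP-labeled SKOV3ip1 cell counts (488/509 nm), normalized to DMSO and tomatine controls. Cancer cells in serum-free medium, with four compound doses (0.36-46 umol/L), sat 2 hr at RT then 16 hr at 37 C on a 48 hr fibroblast/mesothelial/ECM culture.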

Row | SMILES | outcome | activity change, negative = inhibition
1 | CCOc1ccc(-n2c(SCC(=O)N3CCCC3)nc3c([nH]c4ccccc43)c2=O)cc1 | inactive | 
2 | COC(=O)C(Cc1c[nH]c2ccccc12)NC(=O)COc1ccc(Cl)cc1Cl (stereo not given) |  | inactive: 6.56%
3 | Cc1cccc(NS(=O)(=O)c2ccc3[nH]c(=O)ccc3c2)c1C |  | inactive: -13.4%
4 | CCc1ccc(CNC(=O)CCSCc2ccccc2F)cc1 | inactive | 
5 | CCN(C(=O)Cc1nc(-c2ccc(OC)cc2)no1)c1cccc(Cl)c1 |  | inactive: 18.1%
6 | O=C(Cn1c(=O)nc(-c2ccccc2)c2ccccc21)Nc1ccc(Cl)c(C(F)(F)F)c1 |  | inactive: 0.153%
7 | COc1cccc(C2=CC(c3ccc(OC)c(OC)c3OC)n3ncnc3N2)c1 (stereo not given) |  | inactive: 8.05%
8 | COc1cc(NC(=O)Cn2c(=O)oc3cc(S(=O)(=O)N4CCCCCC4)ccc32)cc(OC)c1 | inactive | 
9 | COc1ccccc1OCCn1c(-c2ccc(Cl)cc2)nc2ccccc2c1=O |  | inactive: -22.2%
10 | Cc1oc2ccc(O)c(CN(C)Cc3ccccc3)c2c1C(=O)Nc1cccc(C(F)(F)F)c1 |  | inactive: -9.73%
11 | COc1ccc(C(=O)c2cn(CC(=O)Nc3ccc4c(c3)OCCO4)c3ccc(OC)cc3c2=O)cc1 |  | inactive: 16.6%
12 | CCC(C)NC(=O)Cn1ncc2c([nH]c3ccc(C)cc32)c1=O (stereo not given) |  | inactive: -2.69%
13 | O=C(Nc1nc2n(n1)C(c1ccccc1)C=C(c1ccccc1)N2)c1ccc(Cl)c([N+](=O)[O-])c1 (stereo not given) |  | inactive: 1.23%
14 | CCOC(=O)c1ccc(N2C(=O)c3n[nH]c(-c4cccs4)c3C2c2ccc(C(C)(C)C)cc2)cc1 (stereo not given) |  | inactive: 8.31%
15 | CCOc1ccccc1NC(=O)Cn1c(=O)n(Cc2ccccc2)c(=O)c2c(C)c(C)sc21 |  | inactive: -7.59%
16 | CCc1cccc(NC(=O)Cn2nc(-c3ccc(OC)cc3)ccc2=O)c1 |  | inactive: 1.29%
17 | CCCCC(Sc1nc2cc3c(cc2c(=O)n1CCCC(=O)NCc1ccc(OC)cc1)OCO3)C(=O)OCC (stereo not given) |  | inactive: -8.64%
18 | COc1cc(NC(=O)C2CCCN(S(=O)(=O)c3ccc4c(c3)oc(=O)n4C)C2)c(C(=O)O)cc1OC (stereo not given) |  | inactive: -21.8%
19 | CC(C)OCCCNC(=O)c1cc2c(-c3ccc(Cl)cc3)nn(C)c2s1 |  | inactive: -3.1%
20 | COc1ccc2c(C)c(CC(=O)NCc3ccc(C)cc3)c(=O)oc2c1OC |  | inactive: 15.5%
21 | CCOC(=O)c1[nH]c(C)c(CCC(=O)NCc2ccc(OCC)cc2)c1C |  | inactive: 23.3%
22 | Cc1ccc(NC(=O)c2c(C)oc3ccc(O)c(CN4CCCCCC4)c23)c(C)c1 | inactive | 
23 | Cc1cc(C)c(NC(=O)Cn2c(=O)n(Cc3ccc4c(c3)OCO4)c(=O)c3ccc(C(=O)NC4CCCCC4)cc32)c(C)c1 | inactive | 
24 | O=C(NCc1ccccc1F)c1ccc(CN2CC(=O)N3CCCCC3C2=O)cc1 (stereo not given) |  | inactive: -13.8%

Row | SMILES | outcome | activity change, negative = inhibition
25 | CCc1ccc(NC(=O)C(=O)NCCc2csc(-c3ccc(C(F)(F)F)cc3)n2)cc1 | inactive | 
26 | CCCn1c2ccccc2c2cnn(CC(=O)N3CCC(C)CC3)c(=O)c21 | inactive | 
27 | CCc1ccc(CNC(=O)c2cnc3sc4cc(OC)ccc4n3c2=O)cc1 |  | inactive: 7.18%
28 | CCOC(=O)c1sc2cccc(F)c2c1S(=O)(=O)N1CCN(c2cccc(Cl)c2)CC1 |  | inactive: 5.26%
29 | N#C/C(=C\c1ccc(Cl)cc1)c1nc(-c2cc3ccccc3oc2=O)cs1 |  | inactive: -12.1%
30 | COc1cccc(C(=O)N2c3cc(C)ccc3C(C)(c3ccccc3)CC2(C)C)c1 (stereo not given) |  | inactive: 4.68%
31 | Cc1ccc(NC(=O)CSc2nc3c(oc4ccccc43)c(=O)n2-c2ccc(F)cc2)c(C)c1 |  | inactive: -3.28%
32 | CCCCOc1ccccc1C(=O)N(Cc1ccc(C)o1)C1CCS(=O)(=O)C1 (stereo not given) |  | inactive: -15.8%
33 | O=C(O)CSc1c2c(nc3cc(C(=O)Nc4ccc(F)c(Cl)c4)ccc13)CCC2 | inactive | 
34 | COc1ccccc1NC(=O)c1cc2c(=O)oc3ccc(C)cc3c2s1 | inactive | 
35 | CCOC(=O)c1ccc(N2CCN(c3cc(C)ccc3C)CC2)c(NC(=O)Nc2ccccc2)c1 | inactive | 
36 | COc1ccc(Nc2ncc3c(n2)CCN(Cc2cc(Br)cs2)C3)c(OC)c1 |  | inactive: -1.34%
37 | CCOc1ccccc1NC(=O)Cn1nnc2sc(-c3ccccc3)cc2c1=O |  | inactive: 0.319%
38 | CC(C)c1ccc(S(=O)(=O)NCc2ccc3c(c2)CCN3C(=O)c2ccccc2)cc1 |  | inactive: 5.09%
39 | COc1ccc(CNC(=O)c2ccc3c(c2)nc2n3CCC(C)C2)c(OC)c1 (stereo not given) | inactive | 
40 | COCCNC(=O)CSc1nc2cc3c(cc2c(=O)n1CCCCCC(=O)NCc1ccc(OC)cc1)OCO3 | inactive | 
41 | Cc1cccn2c(=O)c3cc(C#N)c(=O)n(-c4nnc(SCc5ccccc5F)s4)c3nc12 |  | inactive: 19.9%
42 | Cn1nc(-c2ccc(C(=O)Nc3ccc(F)cc3)cc2)c2ccccc2c1=O | inactive | 
43 | COCCCNC(=O)CCCCn1c(=O)c2ccccc2n(CC(=O)Nc2ccc(C)cc2C)c1=O | inactive | 
44 | COc1ccc2cc(-c3nc4ccc(C(=O)O)cc4[nH]3)c(=O)oc2c1 |  | inactive: 0.98%
45 | C=Cc1ccc(Cn2nc(-c3ccc(C)c(S(=O)(=O)N(CC)CC)c3)ccc2=O)cc1 |  | inactive: 19%
46 | CCc1ccccc1NC(=O)Nc1cc(C(=O)NCc2ccc(C)cc2)ccc1N1CCCC1 |  | inactive: -1.34%
47 | CCOc1ccccc1NC(=O)c1c(NC(=O)c2cccc(C)c2)sc2c1CCCC2 |  | inactive: -18.6%
48 | COc1ccc(Br)cc1C(=O)Nc1nc2ccc(F)cc2s1 | inactive | 

Row | SMILES | outcome | activity change, negative = inhibition
49 | CC(C(=O)NCc1ccccc1F)n1ccc2cc(S(=O)(=O)N3CCCC3)ccc21 (stereo not given) |  | inactive: 11.3%
50 | O=c1c(S(=O)(=O)c2ccccc2)cn(Cc2ccccc2)c2cc(N3CCOCC3)c(F)cc12 |  | inactive: 3.35%
51 | CC1CN(C(=O)Nc2ccc(C(=O)NCc3cccc(F)c3)cc2)c2ccccc2S1 (stereo not given) |  | inactive: -12.7%
52 | O=C(Nc1ccccc1Cl)N1CCC(CN2CCCCC2)CC1 |  | inactive: 4.14%
53 | O=C(Nc1ccc(C(F)(F)F)cc1)C1CCCN(c2cnccn2)C1 (stereo not given) |  | inactive: -4.69%
54 | CCOC(=O)c1ccccc1NC(=O)N(C)CCc1c(C)nn(CC)c1C |  | inactive: -2.69%
55 | Cc1cc(C)cc(Oc2nc3c(c(=O)n(C)c(=O)n3C)n2Cc2ccc(F)cc2)c1 |  | inactive: 3.27%
56 | CCc1nnc(SCC(=O)Nc2ccc(F)cc2F)c2cc3sc(C)cc3n12 |  | inactive: -6.71%
57 | COc1cc(C(=O)Nc2ccc3oc(-c4ccc(C)c(Br)c4)nc3c2)cc(OC)c1OC |  | inactive: -1.04%
58 | COc1ccc(N2CCN(c3oc(/C=C/c4cc(OC)c(OC)c(OC)c4)nc3C#N)CC2)cc1 |  | inactive: -8.01%
59 | COc1ccc(Nc2cc(C(=O)NCc3ccccc3OC)c3ccccc3n2)cc1 |  | inactive: 8.02%
60 | Cc1cc(OCC(=O)N(Cc2sccc2C)C2CCS(=O)(=O)C2)ccc1Cl (stereo not given) |  | inactive: 1.51%
61 | CCc1cccc(C)c1NC(=O)CSc1nnc(CC)n2c1cc1occc12 |  | inactive: 0.0584%
62 | COc1ccc(CNC(=O)CN2C(=O)c3cccnc3Oc3ccc(C)cc32)cc1 |  | inactive: 2.51%
63 | Cc1cc(C)c2c(CC(=O)Nc3c(C(=O)Nc4ccc(Cl)cc4)oc4ccccc34)coc2c1 |  | inactive: -13.4%
64 | Cc1cc(Nc2cccc(Cl)c2)nc2ccc(NC(=O)c3cccnc3)cc12 | inactive | 
65 | CCSc1ncc(Cl)c(C(=O)Nc2ccc(S(=O)(=O)N(C)c3ccccc3)cc2)n1 | inactive | 
66 | CCCSCCCNC(=O)c1ccc2nc(Cc3ccccc3)oc2c1 |  | inactive: 4.59%
67 | Cc1ccc(NC(=O)CSc2nc3n[nH]c(C)c3c(=N)n2-c2cccc(C)c2)cc1 | inactive | 
68 | O=C(CN1C(=O)COc2ccc(S(=O)(=O)N3CCCCCC3)cc21)NCc1ccc(F)cc1 |  | inactive: -24.5%
69 | CCOC(=O)N1CCc2c(sc3c2c(=O)n(CCc2ccccc2)c(=O)n3Cc2c(F)cccc2Cl)C1 | inactive | 
70 | O=C(NCCc1ccccc1)c1cnn(-c2ccc(F)cc2)c1-n1cccc1 | inactive | 
71 | Cc1ccc(NC(=O)C(=O)NCC2(c3ccccc3)CCCC2)cc1Cl |  | inactive: 0.713%
72 | CCc1ccc(CNC(=O)CN2CCSc3ccccc32)cc1 | inactive | 

Row | SMILES | outcome | activity change, negative = inhibition
73 | Cn1c(=O)oc2cc(S(=O)(=O)Nc3ccc(C(=O)O)cc3)ccc21 |  | inactive: -9.92%
74 | CCC(=O)N1CCc2cc(S(=O)(=O)NC(C(=O)Nc3ccc(C(C)=O)cc3)C(C)C)ccc21 (stereo not given) |  | inactive: -1.96%
75 | Cc1cc(C)c2c(CC(=O)N(Cc3ccccc3)C3CCS(=O)(=O)C3)coc2c1 (stereo not given) |  | inactive: -9.27%
76 | Cc1cc(C)cc(OCC(=O)Nc2ccc(-c3nc4ccccc4o3)cc2)c1 |  | inactive: 0.159%
77 | COc1ccc(NC(=O)c2cccn2-c2nnc(N3CCCCC3)s2)cc1 |  | inactive: 7.36%
78 | Cc1ccc(OCC(=O)Nc2ccc3nc(SCC(=O)N4CCc5ccccc54)sc3c2)cc1 |  | inactive: -5.05%
79 | COc1ccccc1CNC(=O)c1ccc(-c2nc(CN3CCc4ccccc43)c(C)o2)cc1 |  | inactive: 4.66%
80 | Cc1ccc(Cl)cc1N1CCN(c2ncnc3onc(C)c23)CC1 |  | inactive: 20.9%
81 | CCn1c(=O)c2sccc2n2c(CCC(=O)Nc3cc(C)cc(C)c3)nnc12 |  | inactive: 6.71%
82 | CCOC(=O)C1CCCN(c2nc3c(S(=O)(=O)c4ccc(C)c(C)c4)nnn3c3ccc(Cl)cc23)C1 (stereo not given) |  | inactive: -2.01%
83 | Cn1cnc(=N)c2[nH]cnc21 |  | inactive: -10.9%
84 | COc1cccc(C(=O)Nc2cc3c(cc2C(=O)c2ccc(C)cc2)OCCO3)c1 |  | inactive: 3.06%
85 | COc1cccc(N2CCN(C(=O)C3CCN(S(=O)(=O)c4ccc5c(c4)oc(=O)n5C)CC3)CC2)c1 |  | inactive: -5.23%
86 | COc1ccc2c(c1)CC(C(=O)NCCCN1CCN(c3ccc(F)cc3)CC1)CO2 (stereo not given) |  | inactive: 4.3%
87 | COc1ccc(-c2nc(CS(=O)CC(=O)NCc3ccccc3OC)c(C)o2)cc1 (stereo not given) |  | inactive: -1.94%
88 | Clc1ccc(N2CCN(c3ncnc4c3nc3n4CCCC3)CC2)cc1 |  | inactive: 0.851%
89 | Nc1c(C(=O)Nc2ccccc2)nnn1Cc1ccc(F)cc1Cl | inactive | 
90 | Cc1ccc(CNS(=O)(=O)c2ccc(-c3cc(C(F)(F)F)on3)s2)cc1 |  | inactive: 2.9%
91 | COc1ccc(Cl)cc1NC(=O)Cn1c(=O)n(CCC(=O)NCc2ccc3c(c2)OCO3)c(=O)c2ccccc21 |  | inactive: 54.7%
92 | CCOc1ccccc1C(=O)Nc1nc2c(s1)CC(C)CC2 (stereo not given) |  | inactive: 2.97%
93 | Cc1ccc(N2C(=O)[C@@H]3CSC(c4ccc(F)cc4)N3C2=O)cc1 (stereo not given in full) |  | inactive: -1.23%
94 | Cc1ccccc1NC(=O)Cn1c(=O)n(CC2CCC(C(=O)NCCc3ccccc3)CC2)c(=O)c2ccccc21 (stereo not given) |  | inactive: 4.44%
95 | COC(=O)Cn1c(=O)c2c(nc3n2CCN3c2ccc(F)cc2)n(C)c1=O |  | inactive: 2.32%
